25 compounds from the supplement of paper PMC4604168 (melanoma cell lines) can be followed below.

The other results are listed elsewhere or left out. Most values come without repeats; read them as rough.

Test systems include WM115; WM1716; WM1745; WM3526; WM3619; WM451Lu.
What all share (assay): cell count relative to DMSO control; melanoma cells; higher = more viable cells
Common to all, as to conditions: library dose: low library concentration; 72 h
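Further: cell number obtained by counting DAPI-stained nuclei in high-throughput microscope images with image analysis software, screen run in 1,536-well plates.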

On to `Clc1ccc(Nc2nnc(Cc3ccncc3)c3ccccc23)cc1` [vatalanib] + CCN(CC)CCCCNc1ncc2cc(-c3cc(OC)cc(OC)c3)c(NC(=O)NC(C)(C)C)nc2n1 [PD173074] (first compound 2 µM, partner dose 0.1 µM), for which the cell count with WM115 was determined as 92.1%; in the test on WM1716 it was 86.2%; with WM1745, 96.3%; in the test with WM3526, 105%; in the test with WM3619, 109%; in the test on WM451Lu, 95%.
With `Nc1cccc2c1CN(C1CCC(=O)NC1=O)C2=O` (stereo not given) [lenalidomide] + O=c1cc(-c2cccc3c2Sc2ccccc2S3)oc(N2CCOCC2)c1 [KU55933] (first compound 1 µM, partner dose 1 µM), the cell count was found to be 92.6% in the test on WM115; 115% in the test on WM1716; 122% with WM1745; 94% in the test on WM3526; 136% with WM3619; 109% in the test with WM451Lu.
As to `C#Cc1cccc(Nc2ncnc3cc(OCCOC)c(OCCOC)cc23)c1` [erlotinib] + COc1ccc(COc2ccc(Cc3cnc(N)nc3N)cc2OC)cc1 [GW2580] (first compound 0.8 µM, partner dose 1 µM), the cell count with WM115 was 93.9%; in the test on WM1716 it was 105%; in the test on WM1745, 77.6%; in the test on WM3526, 101%; in the test on WM3619, 97.5%; in the test on WM451Lu it was 121%.
As to `O=C(CCCCCCC(=O)Nc1ccccc1)NO` [vorinostat] + c1cc(-c2cnn3cc(-c4ccc(OCCN5CCCCC5)cc4)cnc23)ccn1 [Dorsomorphin] (first compound 0.08 µM, partner dose 0.4 µM), the cell count with WM115 was 89.8%; in the test with WM1716, 122%; in the test on WM1745, 101%; in the test with WM3526 it was 83.1%; with WM3619 it was 94.4%; in the test with WM451Lu, 91.5%.
For the compound `C#Cc1cccc(Nc2ncnc3cc(OCCOC)c(OCCOC)cc23)c1` [erlotinib] + COc1cc2ncnc(Nc3ccc(Oc4ccccc4)cc3)c2cc1OC [SrcI1] (first compound 0.8 µM, partner dose 2 µM), the cell count in the test on WM115 was found to be 94.5%; in the test with WM1716, 108%; with WM1745, 69.2%; in the test with WM3526, 84.5%; in the test on WM3619 it was 104%; with WM451Lu, 129%.
On to `O=C(CCCCCCC(=O)Nc1ccccc1)NO` [vorinostat] + OCCn1cc(-c2cnc3nnn(Cc4ccc5ncccc5c4)c3n2)cn1 [PF04217903] (first compound 0.08 µM, partner dose 1 µM), for which the cell count in the test with WM115 is 100%; in the test with WM1716 it was 112%; in the test with WM1745, 116%; in the test with WM3526 it was 86.4%; with WM3619 it was 99.4%; with WM451Lu, 71%.
For `Cn1c(Nc2ccc(C(F)(F)F)cc2)nc2cc(Oc3ccnc(-c4ncc(C(F)(F)F)[nH]4)c3)ccc21` + COc1cc2c(Oc3ccc4[nH]c(C)cc4c3F)ncnc2cc1OCCCN1CCCC1 [cediranib] (first compound 0.08 µM, partner dose 0.4 µM), the cell count in the test on WM115 came out at 62.3%; in the test on WM1716, 81.9%; in the test with WM1745 it was 65.5%; in the test with WM3526, 54.8%; with WM3619 it was 60.5%; with WM451Lu, 85.2%.
Regarding `O=C(CCCCCCC(=O)Nc1ccccc1)NO` [vorinostat] + CC(C)(C)c1cnc(CSc2cnc(NC(=O)C3CCNCC3)s2)o1 [SNS-032] (first compound 0.08 µM, partner dose 0.01 µM), the cell count in the test on WM115 is 109%; with WM1716, 120%; with WM1745 it was 124%; in the test on WM3526, 89.5%; in the test with WM3619 it was 115%; in the test on WM451Lu, 100%.
For `O=C(CCCCCCC(=O)Nc1ccccc1)NO` [vorinostat] + Oc1cc(-c2nc(-c3ccccc3)[nH]c2-c2ccncc2)ccc1Cl [L779450] (first compound 0.08 µM, partner dose 0.2 µM), the cell count in the test with WM115 was found to be 103%; in the test with WM1716, 121%; with WM1745, 113%; in the test with WM3526, 65.5%; in the test on WM3619 it was 80.6%; in the test on WM451Lu, 111%.
Regarding `Cn1c(Nc2ccc(C(F)(F)F)cc2)nc2cc(Oc3ccnc(-c4ncc(C(F)(F)F)[nH]4)c3)ccc21` + Nc1cccc2c1CN(C1CCC(=O)NC1=O)C2=O [lenalidomide] (first compound 0.08 µM, partner dose 1 µM), the cell count was determined as 48.8% in the test on WM115; 67% in the test with WM1716; 68.6% in the test with WM1745; 49.7% with WM3526; 73.4% in the test with WM3619; 83.4% in the test on WM451Lu.
Regarding `C#Cc1cccc(Nc2ncnc3cc(OCCOC)c(OCCOC)cc23)c1` [erlotinib] + COc1ccc2c(c1)CCC1C2CCC2(C)C(NCCCCCCN3C(=O)C=CC3=O)CCC12 [U73122] (first compound 0.8 µM, partner dose 0.4 µM), the cell count amounted to 101% with WM115; 72.8% in the test with WM1716; 84.8% with WM1745; 102% in the test with WM3526; 96.9% with WM3619; 108% with WM451Lu.
`Clc1ccc(Nc2nnc(Cc3ccncc3)c3ccccc23)cc1` [vatalanib] + Cc1cc([N+](=O)[O-])ccc1NS(=O)(=O)c1cc(Cl)ccc1Cl [FH535] (first compound 2 µM, partner dose 1 µM): the cell count in the test with WM115 came out at 93.3%; with WM1716 it was 95.2%; in the test on WM1745 it was 91.3%; in the test on WM3526 it was 77.8%; with WM3619 it was 95.9%; in the test on WM451Lu, 108%.
As to `Clc1ccc(Nc2nnc(Cc3ccncc3)c3ccccc23)cc1` [vatalanib] + Nc1cccc2c1CN(C1CCC(=O)NC1=O)C2=O [lenalidomide] (first compound 2 µM, partner dose 1 µM), the cell count with WM115 came out at 99.9%; in the test on WM1716, 109%; in the test with WM1745, 113%; with WM3526, 101%; with WM3619, 106%; in the test with WM451Lu, 108%.
Turning to `O=C(CCCCCCC(=O)Nc1ccccc1)NO` [vorinostat] + COc1cc(Nc2ncc(F)c(Nc3ccc4c(n3)NC(=O)C(C)(C)O4)n2)cc(OC)c1OC [Tamatinib] (first compound 0.08 µM, partner dose 0.4 µM), the cell count amounted to 84.3% in the test with WM115; 102% with WM1716; 105% in the test on WM1745; 100% with WM3526; 79.7% with WM3619; 73.3% with WM451Lu.
With `C#Cc1cccc(Nc2ncnc3cc(OCCOC)c(OCCOC)cc23)c1` [erlotinib] + COC(=O)c1sccc1S(=O)(=O)Nc1ccc(Nc2ccccc2)cc1OC [GSK0660] (first compound 0.8 µM, partner dose 1 µM), the cell count in the test on WM115 was 104%; in the test on WM1716 it was 110%; with WM1745, 89%; in the test with WM3526, 102%; with WM3619 it was 116%; with WM451Lu, 111%.
As for `Clc1ccc(Nc2nnc(Cc3ccncc3)c3ccccc23)cc1` [vatalanib] + O=c1cc(-c2cccc3c2Sc2ccccc2S3)oc(N2CCOCC2)c1 [KU55933] (first compound 2 µM, partner dose 1 µM), the cell count stood at 106% in the test with WM115; 105% in the test on WM1716; 84.8% in the test on WM1745; 90% with WM3526; 91.4% with WM3619; 88.1% in the test with WM451Lu.
On to `O=C(CCCCCCC(=O)Nc1ccccc1)NO` [vorinostat] + NC(=O)Nc1cc(-c2cccc(F)c2)sc1C(=O)N[C@H]1CCCNC1 [AZD7762] (first compound 0.08 µM, partner dose 0.02 µM), for which the cell count in the test on WM115 worked out at 87.5%; in the test with WM1716 it was 112%; with WM1745, 122%; with WM3526, 70.1%; in the test on WM3619, 52.8%; in the test on WM451Lu, 88.1%.
Take `OCc1c[nH]c2ccccc12` [Indole-3-carbinol] + O=S(=O)(c1ccccc1)N(CC(F)(F)F)c1ccc(C(O)(C(F)(F)F)C(F)(F)F)cc1 [T0901317] (first compound 0.8 µM, partner dose 1.4 µM): the cell count with WM115 was determined as 85%; in the test on WM1716, 105%; with WM1745, 94.7%; in the test on WM3526, 95.5%; with WM3619, 85.8%; with WM451Lu it was 94.5%.
`Cn1c(Nc2ccc(C(F)(F)F)cc2)nc2cc(Oc3ccnc(-c4ncc(C(F)(F)F)[nH]4)c3)ccc21` + CN(C)S(=O)(=O)c1ccc2c(c1)/C(=C/c1cc3c([nH]1)CCCC3)C(=O)N2 [SU6656] (first compound 0.08 µM, partner dose 0.4 µM): the cell count with WM115 was determined as 29.5%; in the test with WM1716, 75%; with WM1745, 62.8%; in the test on WM3526, 47.1%; in the test with WM3619 it was 66.4%; in the test on WM451Lu, 95.7%.
In the case of `C#Cc1cccc(Nc2ncnc3cc(OCCOC)c(OCCOC)cc23)c1` [erlotinib] + COc1cc(Nc2ncc(F)c(Nc3ccc4c(n3)NC(=O)C(C)(C)O4)n2)cc(OC)c1OC [Tamatinib] (first compound 0.8 µM, partner dose 0.4 µM), the cell count was determined as 89.6% in the test on WM115; 103% with WM1716; 63.5% with WM1745; 87.7% in the test on WM3526; 91.9% with WM3619; 92.4% in the test on WM451Lu.
Turning to `COCC[n+]1c2c(n(Cc3cnccn3)c1C)C(=O)c1ccccc1C2=O` + COc1ccc(-c2ccc3c(N4CCOCC4)nc(N4C[C@@H](C)O[C@@H](C)C4)nc3n2)cc1CO [KU0063794] (first compound 0.0004 µM, partner dose 0.02 µM), the cell count in the test with WM115 is 92.2%; with WM1716 it was 80.9%; in the test on WM1745, 88.2%; with WM3526, 71.4%; in the test with WM3619 it was 119%; in the test with WM451Lu, 73.8%.
`Cn1c(Nc2ccc(C(F)(F)F)cc2)nc2cc(Oc3ccnc(-c4ncc(C(F)(F)F)[nH]4)c3)ccc21` + CO[C@@H]1[C@H](N(C)C(=O)c2ccccc2)C[C@H]2O[C@]1(C)n1c3ccccc3c3c4c(c5c6ccccc6n2c5c31)C(=O)NC4 [Midostaurin] (first compound 0.08 µM, partner dose 0.08 µM): the cell count was determined as 42.1% in the test on WM115; 49.9% in the test with WM1716; 43.7% with WM1745; 49.6% with WM3526; 78.7% in the test on WM3619; 87.1% in the test with WM451Lu.
Regarding `Cn1c(Nc2ccc(C(F)(F)F)cc2)nc2cc(Oc3ccnc(-c4ncc(C(F)(F)F)[nH]4)c3)ccc21` + O=C(O)c1ccc(-c2c[nH]c3ncc(-c4ccccc4)cc23)cc1C1CCCC1 [GSK650394] (first compound 0.08 µM, partner dose 0.16 µM), the cell count with WM115 came out at 51.2%; in the test with WM1716, 79%; in the test with WM1745 it was 67.7%; with WM3526, 52.8%; in the test with WM3619 it was 72.5%; with WM451Lu, 81.5%.
Regarding `O=C(CCCCCCC(=O)Nc1ccccc1)NO` [vorinostat] + O=C(Nc1cccc(Cl)c1)Nc1ncc(CCNc2ncnc3ccsc23)s1 [SNS314] (first compound 0.08 µM, partner dose 0.0008 µM), the cell count worked out at 72.5% in the test on WM115; 105% with WM1716; 74.8% in the test with WM1745; 96.6% in the test with WM3526; 102% with WM3619; 87.5% with WM451Lu.
With `Clc1ccc(Nc2nnc(Cc3ccncc3)c3ccccc23)cc1` [vatalanib] + CC1(C)NC(=O)N(c2ccc([N+](=O)[O-])c(C(F)(F)F)c2)C1=O [nilutamide] (first compound 2 µM, partner dose 1 µM), the cell count in the test on WM115 was 86.3%; in the test with WM1716, 85.8%; with WM1745, 83.1%; in the test on WM3526, 77.5%; in the test on WM3619, 97.5%; in the test with WM451Lu it was 82.9%.
